Experimental data: PubChem BioAssay AID624418 (National Center for Advancing Translational Sciences (NCATS), 2012)
In all, about 410,000 compounds went through this assay and about 530 (0.13%) were called active. Inconclusive means that the source gave no clear call. Such entries were picked first, then a sample of the others. Calls follow the shape of the dose curve; as a rule, active = well fitted inhibition curve with a large enough effect; inconclusive = small, poorly fitted or top-dose-only effect, or another doubt; inactive = no such curve, though single readings can be large or run the other way. Where the call is inconclusive, the potency comes from a doubtful curve fit.
% is scaled to controls: 0 for no effect and ±100 for the full control effect; potency is read from the fitted curve at half-maximal effect.

Test: qHTS of GLP-1 Receptor Inverse Agonists: Cytotox Screen
Settings: HEK293 cAMP-luciferase reporter cells, luminescence, 24 h; activity change, negative = inhibition: at 38.3 µM (top of the series) unless noted
Outline: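 1536-well qHTS counterscreen of the MLSMR; 200 cells/uL, 12 h pre-incubation, 23 nL cpd, 24 h at 37 deg C 5% CO2, luciferase detection reagent, 12 min RT, luminescence. Inhibition = undesired.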
For `CCOc1ccc(C2NC(=O)C(C#N)=C(S)N2c2cccc(C)c2)cc1OC` (configuration not stated), the Potency was “inactive”. For `O=c1oc(-c2ccccc2)nc2c1C1(CCCCC1)Cc1ccccc1-2`, the Potency was “inactive”. In the case of `Cc1cc(OCC(=O)N(Cc2ccc(N(C)C)cc2)C2CCS(=O)(=O)C2)cc(C)c1Cl` (configuration not stated), the Potency is reported as inconclusive: 28.2 µM [inhibitor, single point]. In the case of `COc1ccc(C2CC3(CC(C)(C)NC(SC)=N3)Oc3cc(O)cc(C)c32)cc1` (configuration not stated), the Potency is reported as inconclusive: 11.2 µM [inhibitor, partial curve, poor fit]. In the case of `Cc1[nH]c2ccccc2c1C(C#N)(C#N)C1C(=O)c2ccccc2C1=O`, the Potency is reported as inconclusive: 31.6 µM [inhibitor, single point]. In the case of `CNC(=S)N1CCN(c2nc(-c3cccc(OC)c3)cs2)CC1`, the Potency is reported as “inactive”. For `COc1ccc2cc1Oc1ccc(cc1)CC1c3c(cc(OC)c4c3Oc3cc5c(cc3O4)CCNC5C2)CCN1C` (configuration not stated), the Potency was active: 11.2 µM. For `CCN(Cc1ccccc1)S(=O)(=O)c1ccc(C(=O)N(CCCN(C)C)c2nc3ccc(F)cc3s2)cc1`, the Potency was inconclusive: 12.6 µM [inhibitor, single point]. For `CCOc1cc(S(=O)(=O)N2CC=C(c3ccc(F)cc3)CC2)c(OCC)cc1-n1cnnn1`, the Potency was inconclusive: 8.91 µM [inhibitor, partial curve, poor fit]. For `COC(=O)c1ccc(Cn2c(O)c(N=NC(N)=S)c3ccccc32)o1`, the Potency was inconclusive: 6.31 µM [inhibitor, partial curve, poor fit]. For `COc1ccc(-c2oc3ncn4nc(COc5ccccc5C)nc4c3c2-c2ccc(OC)cc2)cc1`, the Potency was “inactive”. With `O=C(O)c1ccccc1C(=O)NNc1ccc(F)cc1F` the Potency was inconclusive: 3.55 µM [inhibitor, full curve]. With `Nc1nc(CN2CCN(c3cccc(Cl)c3)CC2)nc(N2CCCc3ccccc32)n1` the Potency was inconclusive: 10 µM [inhibitor, single point]. For `CC(c1n[nH]c(=S)n1-c1ccc(F)cc1)N1CCCCC1` (configuration not stated), the Potency was “inactive”. For `CCC(C)(C)c1ccc(OCCCC[n+]2ccccc2)c(C(C)(C)CC)c1`, the Potency was inconclusive: 11.2 µM [inhibitor, single point]. In the case of `COC(=O)C(C(=O)OC)=C(/C=C/C=C/N(C)C)N(C)C`, the activity change, negative = inhibition is reported as inconclusive: -40% [inhibitor]. For `CC1(C(=O)NCC2CCOCC2)Cc2c(-c3cccc(C(F)(F)F)c3)ccnc2O1` (configuration not stated), the Potency was inconclusive: 11.2 µM [inhibitor, partial curve, poor fit]. For `CC(C)(C)NC(=O)C(c1ccnc2ccccc12)n1c(=O)c(-c2ccccc2)nc2ccccc21` (configuration not stated), the Potency was “inactive”. With `Nc1ccc(C(=O)N2CCN(S(=O)(=O)c3ccc(Cl)cc3)CC2)cc1[N+](=O)[O-]` the Potency was inconclusive: 11.2 µM [inhibitor, single point]. For `Cn1c(=O)c2c(nc(NCc3ccc4c(c3)OCO4)n2Cc2ccc(F)cc2)n(C)c1=O`, the Potency was inconclusive: 3.55 µM [inhibitor, full curve]. With `Cn1ccnc1C(=O)c1cc(SCC(=O)NCc2ccccc2)nc2ccccc12` the Potency was inconclusive: 11.2 µM [inhibitor, single point]. With `Cc1nc(N2CCCC2)ncc1C(=O)N1CCN(c2ccccc2F)CC1` the Potency was “inactive”. In the case of `CC1=C(C(=O)Nc2ccccc2)C(c2cc(Br)ccc2F)n2ncc(C(=O)Nc3ccccc3)c2N1` (configuration not stated), the Potency is reported as “inactive”. In the case of `Cc1ccc(C(=O)n2nc(C)c(S(=O)(=O)N3CCOCC3)c2C)cc1C`, the Potency is reported as “inactive”. In the case of `Cc1ccc2nc(/N=C(\N)NC(=O)NC3CCCCC3)nc(C)c2c1`, the Potency is reported as inconclusive: 14.1 µM [inhibitor, partial curve, poor fit]. In the case of `Cc1c(C(=O)OCC(C)C)[nH]c2c1C(=O)CC(c1cccs1)C2` (configuration not stated), the Potency is reported as inconclusive: 1.12 µM [inhibitor, full curve]. In the case of `O=C(Nc1cccc(-c2cn3ccccc3n2)c1)c1ccccc1`, the Potency is reported as inconclusive: 28.2 µM [inhibitor, single point]. For `Cc1ccc2c(c1)Oc1ccc(NC(=O)CCl)cc1C(=O)N2`, the Potency was inconclusive: 2.24 µM [inhibitor, full curve]. For `Cn1[nH]c(C(F)(F)F)c(C=NCc2ccc(Cl)cc2)c1=O`, the Potency was inconclusive: 1.26 µM [inhibitor, full curve, poor fit]. For `COc1ccc(-c2cc(C(=O)N(C)CC(=O)Nc3cccc(F)c3)c3ccccc3n2)cc1`, the Potency was inconclusive: 12.6 µM [inhibitor, single point]. In the case of `S=C(NCCC1=CCCCC1)Nc1ccccc1`, the Potency is reported as inconclusive: 11.2 µM [inhibitor, single point]. In the case of `COc1ccc(C2=NOC(COc3ccc4c(C)cc(=O)oc4c3)C2)c(OC)c1` (configuration not stated), the Potency is reported as inconclusive: 2.82 µM [inhibitor, full curve]. In the case of `Cc1ccc(C)c(OCc2cc(C(=O)N3CCN(c4ccccc4)CC3)no2)c1`, the Potency is reported as “inactive”. With `Cc1nn(-c2ccc(F)cc2)c(C)c1NS(=O)(=O)c1ccc2ccccc2c1` the Potency was inconclusive: 28.2 µM [inhibitor, single point]. With `CCCCNS(=O)(=O)c1ccc2nc(SCC(=O)Nc3ccccc3Cl)[nH]c2c1` the Potency was inconclusive: 10 µM [inhibitor, partial curve]. In the case of `CCc1ccc(NC(=O)C(CC)Sc2nc3cc4c(cc3c(=O)n2Cc2ccco2)OCO4)cc1` (configuration not stated), the Potency is reported as inconclusive: 28.2 µM [inhibitor, single point]. In the case of `CCN(CC)CCNC(=O)c1ccc(NC(=O)c2ccccc2-c2ccc(C(F)(F)F)cc2)cc1`, the Potency is reported as inconclusive: 10 µM [inhibitor, single point]. For `COCCNC(=O)CCCn1c(SCc2ccccc2Cl)nc2c(sc3ccccc32)c1=O`, the Potency was “inactive”. For `CCC(C)(C)NC(=O)C(c1ccccn1)N(C(=O)c1csnn1)C1CCCCC1` (configuration not stated), the Potency was “inactive”. With `CCOC(=O)Cc1c(C)nc2c(-c3cccc(Br)c3)c[nH]n2c1=O` the Potency was inconclusive: 10 µM [inhibitor, partial curve, poor fit]. For `O=C(c1ccc2c(c1)OCO2)N(Cc1cccs1)C1(C(=O)NC2CCCCC2)CCCCC1`, the Potency was inconclusive: 28.2 µM [inhibitor, single point]. For `CCCc1nnc(NC(=O)Cc2coc3c(C)c(C)ccc23)s1`, the Potency was “inactive”. With `O=S(=O)(c1ccc(-c2csc(=Nc3ccc(F)cc3)n2CCCCCCO)cc1)N1CCCC1` the Potency was inconclusive: 22.4 µM [inhibitor, single point]. For `O=C(COCc1cc(-c2cccs2)on1)NCc1ccc(F)cc1`, the Potency was “inactive”. In the case of `COc1ccc(CN(C)C(=O)/C=C/c2ccc(S(=O)(=O)N3CCCCCC3)cc2)cc1`, the Potency is reported as inconclusive: 17.8 µM [inhibitor, single point]. In the case of `O=C(NCCOc1ccccc1F)c1cc([N+](=O)[O-])ccc1N1CCOCC1`, the Potency is reported as inconclusive: 7.08 µM [inhibitor, partial curve]. With `Cc1ccc(NC(=S)Nc2ccccn2)c(C)c1` the Potency was active: 5.01 µM. In the case of `Cc1cc(C)n(CCC(=O)N/N=C/c2c(O)ccc3ccccc23)n1`, the Potency is reported as inconclusive: 1.78 µM [inhibitor, partial curve, poor fit]. In the case of `CC(NC(=S)Nc1ccc(Cl)cc1)C(c1ccccc1)N1CCOCC1` (configuration not stated), the Potency is reported as inconclusive: 22.4 µM [inhibitor, single point]. With `O=C(NC(NC(=S)Nc1ccccc1Cl)C(Cl)(Cl)Cl)c1cccc(Cl)c1` (configuration not stated) the Potency was “inactive”. For `Cc1ccc(C(Sc2ccccc2)C(Cn2cncn2)C(=O)c2ccccc2)cc1` (configuration not stated), the Potency was inconclusive: 11.2 µM [inhibitor, partial curve, poor fit]. With `CCOc1cc(CNC(=O)Cn2ncn3c(cc4cc(F)ccc43)c2=O)cc(OCC)c1OCC` the Potency was “inactive”. With `COc1ccc(C(=O)/C=C/c2ccccc2)c(OC)c1` the Potency was “inactive”. In the case of `Cc1ccccc1C(=O)NNc1ncnc2c1cnn2-c1cccc(Cl)c1`, the Potency is reported as “inactive”. In the case of `O=C(N/N=C\c1ccc[nH]1)C1COc2ccccc2O1` (configuration not stated), the Potency is reported as “inactive”. In the case of `CN1C(=O)C(O)(CC(=O)/C=C/c2ccco2)c2cc(Br)ccc21` (configuration not stated), the Potency is reported as inconclusive: 7.08 µM [inhibitor, partial curve, poor fit]. In the case of `CCC1Oc2ccc(C)cc2N(CC(=O)N2CCN(c3ccccc3OC)CC2)C1=O` (configuration not stated), the Potency is reported as “inactive”. With `CC1(C)CC(NC(=O)c2ccc(Cl)c(S(=O)(=O)N(Cc3ccccc3)c3ccccc3)c2)CC(C)(C)N1` the Potency was inconclusive: 28.2 µM [inhibitor, single point]. In the case of `Fc1ccc2[nH]c3c(N4CCN(c5ccccc5)CC4)ncnc3c2c1`, the Potency is reported as inconclusive: 25.1 µM [inhibitor, single point]. In the case of `Cc1ccc(CNc2ccc(N3C(=O)CC(C)C3=O)cc2[N+](=O)[O-])cc1` (configuration not stated), the Potency is reported as inconclusive: 10 µM [inhibitor, single point]. In the case of `COc1ccc(-c2[nH]n(-c3ccc([N+](=O)[O-])cc3)c(=O)c2C=NCc2ccncc2)cc1`, the Potency is reported as inconclusive: 28.2 µM [inhibitor, single point]. With `Clc1ccc2c(c1)-c1ccccc1C1=NCCN12` the Potency was inconclusive: 4.47 µM [inhibitor, full curve]. For `COc1ccccc1NC(=O)Nc1nc(CC(=O)Nc2cc(F)ccc2F)cs1`, the Potency was inconclusive: 12.6 µM [inhibitor, single point]. With `COC(=O)N1C2CCCCC2=NN(c2ccccc2)N1C(=O)OC` (configuration not stated) the Potency was inconclusive: 28.2 µM [inhibitor, single point]. For `CC(Sc1nc(-c2ccccc2)cc(C(F)(F)F)n1)C(=O)O` (configuration not stated), the Potency was “inactive”. With `Cc1ccc(O)c(N=Cc2cc(Cc3ccccc3)cc([N+](=O)[O-])c2O)c1` the Potency was inconclusive: 28.2 µM [inhibitor, single point]. For `CC(C)C[C@@H]1Cc2[nH][nH]c(=O)c2[C@H](C(C)C)O1`, the Potency was “inactive”.
